The other results are listed elsewhere or left out.

The experiment concerns the target T1, MBP-FoxP1dN (Mus musculus, UniProt P58462 326-579).
T1 sequence: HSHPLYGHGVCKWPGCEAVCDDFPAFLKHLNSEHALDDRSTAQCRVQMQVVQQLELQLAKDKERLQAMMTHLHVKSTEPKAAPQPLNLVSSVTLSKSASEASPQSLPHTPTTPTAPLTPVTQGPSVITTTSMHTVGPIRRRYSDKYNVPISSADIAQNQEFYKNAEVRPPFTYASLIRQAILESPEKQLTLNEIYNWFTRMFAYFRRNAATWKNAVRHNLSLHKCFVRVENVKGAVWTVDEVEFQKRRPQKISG
Kind of experiment: PD-seq (MBP pull-down with sequencing); 20 mM Tris-HCl pH 7.5, 100 mM NaCl, 1.5 mM MgCl2, 0.4 uM protein, 0.1 uM dsDNA library, 30 min, room temperature, amylose pull-down; high values mean tight binding. As to conditions: protein: recombinant; tags: His6-MBP; chain copies: 2; dsDNA, one strand shown. In outline: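 E. coli-expressed mouse FoxP3 or FoxP1 fragment, N-terminus removed and tagged with His6-MBP, was used at 0.4 µM against 0.1 µM of a Klenow-filled degenerate double-stranded DNA library. After 30 min at room temperature in Tris pH 7.5 buffer with NaCl and MgCl2, complexes were pulled down on amylose resin and washed three times. Binding is pull-down over input reads-per-million enrichment from pooled replicates of the proteinase K-released, PCR-barcoded, Illumina-sequenced DNA.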
With “GATGATTGTTCTCCCAGCTGATGAATTTTCACCCTCGAGTAAACAAATTTTCCTAATCTTTCTGTTCAAGCGCCATCTAC”, the binding signal was 0.852 RPM ratio (pull-down/input).

Regarding “GATGATTGTTCTCCCAGCTGATGAATTCTCTTCGTCGAGTAAACAAATTTTCCTAATCTTTCTGTTCAAGCGCCATCTAC”, the binding signal is 0.808 RPM ratio (pull-down/input).

For the sequence “GATGATTGTTCTCCCAGCTGATGAATTGCGACGGTCGAGTAAACAAATTTTCCTAATCTTTCTGTTCAAGCGCCATCTAC”, the binding signal is 0.983 RPM ratio (pull-down/input).

As for “GATGATTGTTCTCCCAGCTGATGAATTACGGCCTTCGAGTAAACAAATTTTCCTAATCTTTCTGTTCAAGCGCCATCTAC”, the binding signal was 0.977 RPM ratio (pull-down/input).

Turning to “GATGATTGTTCTCCCAGCTGATGAATTAACGCTCTCGAGTAAACAAATTTTCCTAATCTTTCTGTTCAAGCGCCATCTAC”, the binding signal was 0.86 RPM ratio (pull-down/input).

Turning to “GATGATTGTTCTCCCAGCTGATGAATTGGCATTCTCGAGTAAACAAATTTTCCTAATCTTTCTGTTCAAGCGCCATCTAC”, the binding signal was 1.07 RPM ratio (pull-down/input).

In the case of “GATGATTGTTCTCCCAGCTGATGAATTACCACACTCGAGTAAACAAATTTTCCTAATCTTTCTGTTCAAGCGCCATCTAC”, the binding signal was 1.07 RPM ratio (pull-down/input).

Regarding “GATGATTGTTCTCCCAGCTGATGAATTTATAAAGTCGAGTAAACAAATTTTCCTAATCTTTCTGTTCAAGCGCCATCTAC”, the binding signal is 1.14 RPM ratio (pull-down/input).

On to “GATGATTGTTCTCCCAGCTGATGAATTTCCCGATTCGAGTAAACAAATTTTCCTAATCTTTCTGTTCAAGCGCCATCTAC”, for which the binding signal was 0.845 RPM ratio (pull-down/input).

In the case of “GATGATTGTTCTCCCAGCTGATGAATTTGTCTGATCGAGTAAACAAATTTTCCTAATCTTTCTGTTCAAGCGCCATCTAC”, the binding signal was 1.04 RPM ratio (pull-down/input).

Take “GATGATTGTTCTCCCAGCTGATGAATTCAATGAATCGAGTAAACAAATTTTCCTAATCTTTCTGTTCAAGCGCCATCTAC”: the binding signal is 0.93 RPM ratio (pull-down/input).

As for “GATGATTGTTCTCCCAGCTGATGAATTCCAGTGTTCGAGTAAACAAATTTTCCTAATCTTTCTGTTCAAGCGCCATCTAC”, the binding signal was 0.961 RPM ratio (pull-down/input).

For the sequence “GATGATTGTTCTCCCAGCTGATGAATTCGAACCATCGAGTAAACAAATTTTCCTAATCTTTCTGTTCAAGCGCCATCTAC”, the binding signal is 0.867 RPM ratio (pull-down/input).

As for “GATGATTGTTCTCCCAGCTGATGAATTTGCTCATTCGAGTAAACAAATTTTCCTAATCTTTCTGTTCAAGCGCCATCTAC”, the binding signal was 0.978 RPM ratio (pull-down/input).

Regarding “GATGATTGTTCTCCCAGCTGATGAATTAACAGGGTCGAGTAAACAAATTTTCCTAATCTTTCTGTTCAAGCGCCATCTAC”, the binding signal is 0.876 RPM ratio (pull-down/input).

Take “GATGATTGTTCTCCCAGCTGATGAATTGCAGGTATCGAGTAAACAAATTTTCCTAATCTTTCTGTTCAAGCGCCATCTAC”: the binding signal was 1.22 RPM ratio (pull-down/input).

Take “GATGATTGTTCTCCCAGCTGATGAATTTGCACCATCGAGTAAACAAATTTTCCTAATCTTTCTGTTCAAGCGCCATCTAC”: the binding signal was 1.05 RPM ratio (pull-down/input).

In the case of “GATGATTGTTCTCCCAGCTGATGAATTCATTAGCTCGAGTAAACAAATTTTCCTAATCTTTCTGTTCAAGCGCCATCTAC”, the binding signal was 0.842 RPM ratio (pull-down/input).

Take “GATGATTGTTCTCCCAGCTGATGAATTTGTCCTCTCGAGTAAACAAATTTTCCTAATCTTTCTGTTCAAGCGCCATCTAC”: the binding signal was 1.07 RPM ratio (pull-down/input).

“GATGATTGTTCTCCCAGCTGATGAATTGTTGGAGTCGAGTAAACAAATTTTCCTAATCTTTCTGTTCAAGCGCCATCTAC”: the binding signal was 0.962 RPM ratio (pull-down/input).

On to “GATGATTGTTCTCCCAGCTGATGAATTCAATTTCTCGAGTAAACAAATTTTCCTAATCTTTCTGTTCAAGCGCCATCTAC”, for which the binding signal is 0.927 RPM ratio (pull-down/input).

Take “GATGATTGTTCTCCCAGCTGATGAATTGCACTTCTCGAGTAAACAAATTTTCCTAATCTTTCTGTTCAAGCGCCATCTAC”: the binding signal was 1.35 RPM ratio (pull-down/input).

As to “GATGATTGTTCTCCCAGCTGATGAATTAGGGAGGTCGAGTAAACAAATTTTCCTAATCTTTCTGTTCAAGCGCCATCTAC”, the binding signal is 0.833 RPM ratio (pull-down/input).

On to “GATGATTGTTCTCCCAGCTGATGAATTCGTCACATCGAGTAAACAAATTTTCCTAATCTTTCTGTTCAAGCGCCATCTAC”, for which the binding signal was 0.945 RPM ratio (pull-down/input).

With “GATGATTGTTCTCCCAGCTGATGAATTTGACCCATCGAGTAAACAAATTTTCCTAATCTTTCTGTTCAAGCGCCATCTAC”, the binding signal was 0.851 RPM ratio (pull-down/input).

On to “GATGATTGTTCTCCCAGCTGATGAATTACGCCTGTCGAGTAAACAAATTTTCCTAATCTTTCTGTTCAAGCGCCATCTAC”, for which the binding signal is 0.963 RPM ratio (pull-down/input).

Take “GATGATTGTTCTCCCAGCTGATGAATTGTGGGTTTCGAGTAAACAAATTTTCCTAATCTTTCTGTTCAAGCGCCATCTAC”: the binding signal is 1.05 RPM ratio (pull-down/input).

On to “GATGATTGTTCTCCCAGCTGATGAATTGTCGTCCTCGAGTAAACAAATTTTCCTAATCTTTCTGTTCAAGCGCCATCTAC”, for which the binding signal was 0.988 RPM ratio (pull-down/input).

As to “GATGATTGTTCTCCCAGCTGATGAATTGAGCCCCTCGAGTAAACAAATTTTCCTAATCTTTCTGTTCAAGCGCCATCTAC”, the binding signal is 0.738 RPM ratio (pull-down/input).

With “GATGATTGTTCTCCCAGCTGATGAATTTGCTGAATCGAGTAAACAAATTTTCCTAATCTTTCTGTTCAAGCGCCATCTAC”, the binding signal is 0.998 RPM ratio (pull-down/input).

With “GATGATTGTTCTCCCAGCTGATGAATTAACGAGATCGAGTAAACAAATTTTCCTAATCTTTCTGTTCAAGCGCCATCTAC”, the binding signal is 0.923 RPM ratio (pull-down/input).

For “GATGATTGTTCTCCCAGCTGATGAATTCGGGTGTTCGAGTAAACAAATTTTCCTAATCTTTCTGTTCAAGCGCCATCTAC”, the binding signal was 0.849 RPM ratio (pull-down/input).
